The list shows a part of the results. Rule as the data show it: active = 3.2 or more and inactive = the rest. The signal is at background level for most entries.
Experiments:
Assay in all cases: enrichment score (SH2-bound / input frequency) (ratio); bacterial display of known human phosphotyrosine sites (pTyr-Var adds point mutants) read by sequencing; higher = stronger binding; tyrosines were phosphorylated by kinases first
Conditions in all cases: peptide library: pTyr-Var
SHP2 C-SH2 domain E139D = target: SHP2 C-SH2 domain E139D
[1] = target: SHP2 C-SH2 domain wild-type
SHP2 N-SH2 domain L43F = target: SHP2 N-SH2 domain L43F
SHP2 N-SH2 domain T42A = target: SHP2 N-SH2 domain T42A
SHP2 N-SH2 domain T52S = target: SHP2 N-SH2 domain T52S
[2] = target: SHP2 N-SH2 domain wild-type

Measured: enrichment score
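Also: displayed peptides selected on beads carrying the immobilized SH2 domain, with library peptides lacking any tyrosine serving as negative controls.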

AHAGKYGAEAL [HBA1_Y25_E24K]
inactive: SHP2 C-SH2 domain E139D 0.744 | [1] 0.494 | SHP2 N-SH2 domain L43F 0.616 | SHP2 N-SH2 domain T42A 0.646 | SHP2 N-SH2 domain T52S 0.699 | [2] 0.773

AHAGEYGEEAL [HBA1_Y25_A27E]
inactive: SHP2 C-SH2 domain E139D 0.452 | [1] 0.454 | SHP2 N-SH2 domain L43F 0.541 | SHP2 N-SH2 domain T42A 0.548 | SHP2 N-SH2 domain T52S 0.419 | [2] 0.584

VMTSKYRGGGG [HBA1_Y141_L137M]
inactive: SHP2 C-SH2 domain E139D 0.564 | [1] 0.491 | SHP2 N-SH2 domain L43F 0.49 | SHP2 N-SH2 domain T42A 0.449 | SHP2 N-SH2 domain T52S 0.536 | [2] 0.618

VLTSTYRGGGG [HBA1_Y141_K140T]
inactive: SHP2 C-SH2 domain E139D 0.723 | [1] 0.759 | SHP2 N-SH2 domain L43F 0.815 | SHP2 N-SH2 domain T42A 0.676 | SHP2 N-SH2 domain T52S 0.658 | [2] 0.774

AHDGEYGAEAL [HBA1_Y25_A22D]
inactive: SHP2 C-SH2 domain E139D 0.392 | [1] 0.462 | SHP2 N-SH2 domain L43F 0.393 | SHP2 N-SH2 domain T42A 0.502 | SHP2 N-SH2 domain T52S 0.624 | [2] 0.642

AQAGEYGAEAL [HBA1_Y25_H21Q]
inactive: SHP2 C-SH2 domain E139D 0.513 | [1] 0.427 | SHP2 N-SH2 domain L43F 0.417 | SHP2 N-SH2 domain T42A 0.345 | SHP2 N-SH2 domain T52S 0.363 | [2] 0.393

AHAGEYGAVAL [HBA1_Y25_E28V]
inactive: SHP2 C-SH2 domain E139D 0.615 | [1] 0.698 | SHP2 N-SH2 domain L43F 0.621 | SHP2 N-SH2 domain T42A 0.462 | SHP2 N-SH2 domain T52S 0.615 | [2] 0.79

VLTSKYCGGGG [HBA1_Y141_R142C]
inactive: SHP2 C-SH2 domain E139D 0.519 | [1] 0.639 | SHP2 N-SH2 domain L43F 0.51 | SHP2 N-SH2 domain T42A 0.634 | SHP2 N-SH2 domain T52S 0.609 | [2] 0.514

AHAGGYGAEAL [HBA1_Y25_E24G]
inactive: SHP2 C-SH2 domain E139D 0.854 | [1] 0.64 | SHP2 N-SH2 domain L43F 0.726 | SHP2 N-SH2 domain T42A 0.483 | SHP2 N-SH2 domain T52S 0.63 | [2] 0.635

PTTKTYFPHFH [HBA1_Y43_D48H]
inactive: SHP2 C-SH2 domain E139D 2.07 | [1] 1.86 | SHP2 N-SH2 domain L43F 1.85 | SHP2 N-SH2 domain T42A 2.04 | SHP2 N-SH2 domain T52S 1.88 | [2] 2.39

HIAKGYRRDNP [HARS1_Y156_V155G]
inactive: SHP2 C-SH2 domain E139D 0.209 | [1] 0.322 | SHP2 N-SH2 domain L43F 0.249 | SHP2 N-SH2 domain T42A 0.228 | SHP2 N-SH2 domain T52S 0.323 | [2] 0.345

AAGGRYYGLVG [HARS1_Y363_D364Y]
inactive: SHP2 C-SH2 domain E139D 0.701 | [1] 0.658 | SHP2 N-SH2 domain L43F 0.724 | SHP2 N-SH2 domain T42A 0.572 | SHP2 N-SH2 domain T52S 0.674 | [2] 0.678

VLTSKYPGGGG [HBA1_Y141_R142P]
inactive: SHP2 C-SH2 domain E139D 0.646 | [1] 0.725 | SHP2 N-SH2 domain L43F 0.873 | SHP2 N-SH2 domain T42A 0.748 | SHP2 N-SH2 domain T52S 0.684 | [2] 0.9

KKMKCYHVGKV [HARS2_Y151_R150C]
inactive: SHP2 C-SH2 domain E139D 2.36 | [1] 2.06 | SHP2 N-SH2 domain L43F 2.23 | SHP2 N-SH2 domain T42A 1.94 | SHP2 N-SH2 domain T52S 2.25 | [2] 2.12

VLTSKHRGGGG [HBA1_Y141_Y141H]
inactive: SHP2 C-SH2 domain E139D 0.891 | [1] 1.1 | SHP2 N-SH2 domain L43F 0.783 | SHP2 N-SH2 domain T42A 0.504 | SHP2 N-SH2 domain T52S 0.531 | [2] 1.09

LKDEDYLKDTV [HAUS3_Y582_I586T]
inactive: SHP2 C-SH2 domain E139D 0.343 | [1] 0.439 | SHP2 N-SH2 domain L43F 0.575 | SHP2 N-SH2 domain T42A 0.42 | SHP2 N-SH2 domain T52S 0.928 | [2] 0.501

VLTSKYRGGGG [HBA1_Y141]
inactive: SHP2 C-SH2 domain E139D 0.485 | [1] 0.312 | SHP2 N-SH2 domain L43F 0.41 | SHP2 N-SH2 domain T42A 0.44 | SHP2 N-SH2 domain T52S 0.532 | [2] 0.446

AHAGEYGAGAL [HBA1_Y25_E28G]
inactive: SHP2 C-SH2 domain E139D 0.532 | [1] 0.703 | SHP2 N-SH2 domain L43F 0.505 | SHP2 N-SH2 domain T42A 0.44 | SHP2 N-SH2 domain T52S 0.54 | [2] 0.565

LKDEDYLKDIV [HAUS3_Y582]
inactive: SHP2 C-SH2 domain E139D 0.483 | [1] 0.466 | SHP2 N-SH2 domain L43F 0.541 | SHP2 N-SH2 domain T42A 0.479 | SHP2 N-SH2 domain T52S 0.23 | [2] 0.688

Reference: the supplement of paper PMC10369915
